# Structures can show the parent of a compound that is named as a salt. This is one part of the list. Single values are uncertain, as repeats are few or missing.
# How the values were obtained:
# KB-3-1 = experiment: growth inhibition relative to DMSO control (SRB); cervical cancer cells: KB-3-1 is the parent and KB-V1 overexpresses MDR1; SRB is the sulforhodamine B stain; higher = more growth inhibition; details: 1 µM; 72 h
# KB-V1 = experiment: as above; details: 1 µM; 72 h
# 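Also: Read-out is SRB optical density at 490 nm, with the control being wells given 0.5% DMSO vehicle, and compound added one day after cells were plated.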
Compound,growth inhibition (KB-3-1) [%],growth inhibition (KB-V1) [%]
Cc1ccc(C(=O)c2cc(O)c(O)c([N+](=O)[O-])c2)cc1 [Tolcapone],< 0,< 0
O=C(c1ccc(F)cc1)C1CCN(CCn2c(=O)[nH]c3ccccc3c2=O)CC1 [Ketanserin],< 0,21.5
CC(C)N(CCC(=O)c1ccc2ccccc2c1)Cc1ccccc1,60,17.9
CC(C)N(C[C@H]1O[C@@H](n2cnc3c(N)ncnc32)[C@H](O)[C@@H]1O)[C@H]1C[C@@H](CCc2nc3cc(C(C)(C)C)ccc3[nH]2)C1,< 0,5.84
N#Cc1c(O)c2c(-c3ccc(-c4ccccc4O)cc3)csc2[nH]c1=O,< 0,22.8
Oc1ccc(Nc2nc(-c3ccc(Cl)cc3)cs2)cc1,< 0,< 0
Cc1ccc(Nc2nccc(N(C)c3ccc4c(C)n(C)nc4c3)n2)cc1S(N)(=O)=O,68.8,37.6
FC(F)c1nc2ccccc2n1-c1nc(N2CCOCC2)nc(N2CCOCC2)n1,80.1,78.4
CN1CCC[C@@H]1Cc1c[nH]c2ccc(CCS(=O)(=O)c3ccccc3)cc12 [Eletriptan HBr],< 0,1.55
COc1cc2ncnc(Nc3ccc(F)c(Cl)c3)c2cc1NC(=O)/C=C/CN1CCCCC1,< 0,17.2
CNCCC(Oc1ccc(C(F)(F)F)cc1)c1ccccc1 (stereo unspecified) [Fluoxetine HCl],11.8,35.4
CC(C)NCC(O)c1ccc(O)c(O)c1 (stereo unspecified) [Isoprenaline HCl],31,15.6
CCC(CC)(NC(=O)C(C)C)C(=O)N[C@@H](CCCN=C(N)N)C(=O)NC1(C(=O)NC(c2ccc(F)cc2)c2ccc(F)cc2)CCCC1,< 0,< 0

# — the supplement of paper PMC7266297
